Experimental findings from patent US20060177831A1 (published 2006) are described below.

For assay [1], the target named is T1, c-MET extracellular domain (ECD)/Fc chimera (human, UniProt P08581 25-932).
T1 construct: Bought (R&D Systems, carrier free); also called c-MET ECD/Fc; c-MET-ECD/Fc fusion; not shown: immunoglobulin Fc domain
In words: binding ELISA on c-MET ECD/Fc, Q-pure. Background: An ELISA detects its analyte on a solid surface through an enzyme-linked reagent.

Assay [2] deals with T1, c-MET extracellular domain (ECD)/Fc …. Briefly: binding ELISA on c-MET ECD/Fc, NiNTA-pure.
For assay [3] the target is unchanged. Briefly: AlphaScreen competition with bn-HGF for c-MET ECD/Fc, Q-pure. On the technique in general: Alpha assays give light when donor and acceptor beads are brought close together.
The target is the same in assay [4]. Briefly: AlphaScreen competition with bn-HGF for c-MET ECD/Fc, NiNTA-pure.

What is called Kd is a measure of binding affinity in units of concentration. Read a high Kd as weaker binding. One may read the IC50 as the concentration that inhibits the measured activity by half.

T1 sequence (P08581 25-932, change not shown): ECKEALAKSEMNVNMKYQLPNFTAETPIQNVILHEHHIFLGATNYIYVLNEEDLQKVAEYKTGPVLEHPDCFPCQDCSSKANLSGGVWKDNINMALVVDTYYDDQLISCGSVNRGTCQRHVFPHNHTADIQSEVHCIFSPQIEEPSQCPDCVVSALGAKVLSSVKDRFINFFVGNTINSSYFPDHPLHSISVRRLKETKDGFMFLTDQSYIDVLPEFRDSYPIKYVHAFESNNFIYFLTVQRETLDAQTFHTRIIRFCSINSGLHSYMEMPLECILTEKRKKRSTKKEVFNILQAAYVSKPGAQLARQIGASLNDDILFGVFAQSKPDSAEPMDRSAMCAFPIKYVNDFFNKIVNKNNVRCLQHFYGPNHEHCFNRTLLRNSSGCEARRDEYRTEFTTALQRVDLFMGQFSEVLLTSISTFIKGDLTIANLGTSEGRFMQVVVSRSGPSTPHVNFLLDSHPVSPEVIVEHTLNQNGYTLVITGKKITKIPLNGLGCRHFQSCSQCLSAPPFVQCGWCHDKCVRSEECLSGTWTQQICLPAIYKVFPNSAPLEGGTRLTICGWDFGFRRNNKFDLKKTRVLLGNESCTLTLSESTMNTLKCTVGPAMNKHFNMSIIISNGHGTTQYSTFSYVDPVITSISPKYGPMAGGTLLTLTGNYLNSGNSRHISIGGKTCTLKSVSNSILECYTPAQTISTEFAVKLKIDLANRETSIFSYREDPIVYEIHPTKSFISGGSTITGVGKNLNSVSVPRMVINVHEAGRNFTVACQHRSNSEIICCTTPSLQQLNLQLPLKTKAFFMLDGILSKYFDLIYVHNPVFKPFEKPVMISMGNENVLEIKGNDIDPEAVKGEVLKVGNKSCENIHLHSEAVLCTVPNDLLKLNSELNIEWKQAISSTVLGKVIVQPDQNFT

B1: Anti-c-MET recombined Avimer monomer RecM05 (designed binder)
chain: CHPTAEFECHSTGRCIPVDWLCDGDNDCEDSSDEKNCKAHTSLQ
notes: Assayed protein also bears HA and 6His tags; also called C413
As to B1, the Kd in assay [1] was determined as 2 nM; in assay [2] it was 9.7 nM. Also, the IC50 in assay [3] stood at 23 nM; in assay [4] it was 15 nM.

B2: Anti-c-MET recombined Avimer RecM01 (dimer) (designed binder)
chain: CPAGQFTCRSTNRCIPLQWVCDGDNDCEDSSDESPAICATTGPTSLQKASAAYPYDVPDYAPGLEASGGSCESNEFQCRSTGRCVPVAWVCDGDNDCEDSSDEKNCKAPTSLQ
notes: Two A domains in one chain; Assayed protein also bears HA and 6His tags; also called C409
For the molecule B2, the Kd in assay [1] is 0.3 nM; in assay [2], 2.4 nM. Besides, the values for the IC50 in assay [3] and in assay [4] were 1 nM and 2 nM, respectively.

B3: Anti-c-MET Avimer monomer M05 (designed binder)
chain: CNTTQFSCRSTNRCIPLDWQCDGVTDCEDNSDEASCSAPASEPPGSLSLQ
notes: Assayed protein also bears HA and 6His tags; also called C132
Regarding B3, in assay [2], binding was characterised by a dissociation constant (Kd) of 69 nM. The molecule further showed an IC50 in assay [4] of 392 nM.
